# Test results as given in the supplement of paper PMC8728848.
# The other results are listed elsewhere or left out.
# B1: VLRB.aGPA.23-GCN4-biotin (Petromyzon marinus) (protein)
# chain: ACPSQCSCSGTEVNCAGKSLASVPAGIPTTTRVLYLNSNQITKLEPGVFDRLANLRELHLWGNQLVSLPPGVFDNLANLEKLWLNSNQLTSLPAGLFDRLVNLEHLGLCCMKLTELPSGAFDKLTRLKQLGLDQNQLKSIPDGAFARLPSLTHVWLHTNPWDCQCTDILYLSGWVAQHSSIVGEGWPWRHSPDSAKCSGTNTPVRAVTEASTSPSKCP
# Tests used:
# Assay in all cases: glycan array binding signal (z-score within array); higher = stronger binding
# Conditions in all cases: glycan notation: IUPAC condensed, linker removed
# [1] = target: GlcNAc(b1-3)Gal(b1-4)GlcNAc(b1-3)Gal(b1-4)GlcNAc(b1-3)Gal(b1-4)GlcNAc(b1-2)Man(a1-3)[GlcNAc(b1-3)Gal(b1-4)GlcNAc(b1-3)Gal(b1-4)GlcNAc(b1-3)Gal(b1-4)GlcNAc(b1-2)Man(a1-6)]Man(b1-4)GlcNAc(b1-4)[Fuc(a1-6)]GlcNAc
# Summary of the method: (§1)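 Arrays were curated from the Consortium for Functional Glycomics database, 3228 in total, and kept only where the protein sequence was available. Binding is expressed as a within-array Z-score. This score was averaged across arrays of the same protein sequence at different concentrations or buffers and across linkers, and negative values can be read as non-binding.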
# [2] = target: GlcNAc(b1-3)Gal(b1-4)GlcNAc(b1-3)Gal(b1-4)GlcNAc(b1-3)Gal(b1-4)GlcNAc(b1-2)[GlcNAc(b1-3)Gal(b1-4)GlcNAc(b1-3)Gal(b1-4)GlcNAc(b1-3)Gal(b1-4)GlcNAc(b1-6)]Man(a1-6)[GlcNAc(b1-3)Gal(b1-4)GlcNAc(b1-3)Gal(b1-4)GlcNAc(b1-3)Gal(b1-4)GlcNAc(b1-2)Man(a1-3)]Man(b1-4)GlcNAc(b1-4)[Fuc(a1-6)]GlcNAc
# Summary of the method: as §1
# [3] = target: GlcNAc(b1-3)Gal(b1-4)GlcNAc(b1-3)Gal(b1-4)GlcNAc(b1-3)Gal(b1-4)GlcNAc(b1-3)Gal(b1-4)GlcNAc(b1-2)Man(a1-3)[GlcNAc(b1-3)Gal(b1-4)GlcNAc(b1-3)Gal(b1-4)GlcNAc(b1-3)Gal(b1-4)GlcNAc(b1-3)Gal(b1-4)GlcNAc(b1-2)Man(a1-6)]Man(b1-4)GlcNAc(b1-4)GlcNAc
# Summary of the method: as §1
# [4] = target: GlcNAc(b1-3)Gal(b1-4)GlcNAc(b1-3)Gal(b1-4)GlcNAc(b1-3)Gal(b1-4)GlcNAc(b1-3)Gal(b1-4)GlcNAc(b1-2)Man(a1-3)[GlcNAc(b1-3)Gal(b1-4)GlcNAc(b1-3)Gal(b1-4)GlcNAc(b1-3)Gal(b1-4)GlcNAc(b1-3)Gal(b1-4)GlcNAc(b1-2)Man(a1-6)]Man(b1-4)GlcNAc(b1-4)[Fuc(a1-6)]GlcNAc
# Summary of the method: as §1
# [5] = target: GlcNAc(b1-3)Gal(b1-4)GlcNAc(b1-3)Gal(b1-4)GlcNAc(b1-3)Gal(b1-4)GlcNAc(b1-3)Gal(b1-4)GlcNAc(b1-2)[GlcNAc(b1-3)Gal(b1-4)GlcNAc(b1-3)Gal(b1-4)GlcNAc(b1-3)Gal(b1-4)GlcNAc(b1-3)Gal(b1-4)GlcNAc(b1-6)]Man(a1-6)[GlcNAc(b1-3)Gal(b1-4)GlcNAc(b1-3)Gal(b1-4)GlcNAc(b1-3)Gal(b1-4)GlcNAc(b1-3)Gal(b1-4)GlcNAc(b1-2)Man(a1-3)]Man(b1-4)GlcNAc(b1-4)[Fuc(a1-6)]GlcNAc
# Summary of the method: as §1
# [6] = target: GlcNAc(b1-3)Gal(b1-4)GlcNAc(b1-3)Gal(b1-4)GlcNAc(b1-3)GalNAc
# Summary of the method: as §1
# [7] = target: GlcNAc(b1-3)Gal(b1-4)GlcNAc(b1-3)GalNAc
# Summary of the method: as §1
# [8] = target: GlcNAc(b1-3)Gal(b1-4)GlcNAc(b1-3)[GlcNAc(b1-3)Gal(b1-4)GlcNAc(b1-3)]GalNAc
# Summary of the method: as §1
# [9] = target: GlcNAc(b1-3)Gal(b1-4)GlcNAc(b1-6)[Gal(b1-3)]GalNAc
# Summary of the method: as §1
# [10] = target: GlcNAc(b1-3)Gal(b1-4)GlcNAc(b1-6)[GlcNAc(b1-3)Gal(b1-3)]GalNAc
# Summary of the method: as §1
# [11] = target: GlcNAc(b1-3)Gal(b1-4)GlcNAc(b1-6)[GlcNAc(b1-3)]Gal(b1-4)GlcNAc
# Summary of the method: as §1
# [12] = target: GlcNAc(b1-3)GalNAc
# Summary of the method: as §1
# [13] = target: GlcNAc(b1-3)Man
# Summary of the method: as §1
# [14] = target: GlcNAc(b1-3)[GlcNAc(b1-4)][GlcNAc(b1-6)]GlcNAc
# Summary of the method: as §1
# [15] = target: GlcNAc(b1-3)[GlcNAc(b1-6)]Gal(b1-4)GlcNAc
# Summary of the method: as §1
# [16] = target: GlcNAc(b1-3)[GlcNAc(b1-6)]GalNAc
# Summary of the method: as §1
# [17] = target: GlcNAc(b1-4)Gal(b1-4)GlcNAc
# Summary of the method: as §1
# [18] = target: GlcNAc(b1-4)GlcNAc
# Summary of the method: as §1
# [19] = target: GlcNAc(b1-4)GlcNAc(b1-4)GlcNAc
# Summary of the method: as §1
# [20] = target: GlcNAc(b1-4)GlcNAc(b1-4)GlcNAc(b1-4)GlcNAc(b1-4)GlcNAc
# Summary of the method: as §1
# [21] = target: GlcNAc(b1-4)GlcNAc(b1-4)GlcNAc(b1-4)GlcNAc(b1-4)GlcNAc(b1-4)GlcNAc
# Summary of the method: as §1
# [22] = target: GlcNAc(b1-4)[GlcNAc(b1-6)]GalNAc
# Summary of the method: as §1
# [23] = target: GlcNAc(b1-6)Gal(b1-4)GlcNAc
# Summary of the method: as §1
# [24] = target: GlcNAc(b1-6)GalNAc
# Summary of the method: as §1
# [25] = target: GlcNAc6S(b1-3)Gal(b1-4)GlcNAc
# Summary of the method: as §1
# [26] = target: Kdn(a2-3)Gal(b1-3)GalNAc
# Summary of the method: as §1
# [27] = target: Kdn(a2-3)Gal(b1-3)GlcNAc
# Summary of the method: as §1
binder,measurement,setting,value
B1,glycan array binding signal (z-score),[1],-0.059
same,glycan array binding signal (z-score),[2],-0.065
same,glycan array binding signal (z-score),[3],-0.076
same,glycan array binding signal (z-score),[4],-0.07
same,glycan array binding signal (z-score),[5],-0.068
same,glycan array binding signal (z-score),[6],-0.084
same,glycan array binding signal (z-score),[7],-0.089
same,glycan array binding signal (z-score),[8],-0.073
same,glycan array binding signal (z-score),[9],-0.075
same,glycan array binding signal (z-score),[10],-0.085
same,glycan array binding signal (z-score),[11],-0.087
same,glycan array binding signal (z-score),[12],-0.081
same,glycan array binding signal (z-score),[13],-0.084
same,glycan array binding signal (z-score),[14],-0.084
same,glycan array binding signal (z-score),[15],-0.08
same,glycan array binding signal (z-score),[16],-0.077
same,glycan array binding signal (z-score),[17],-0.088
same,glycan array binding signal (z-score),[18],-0.088
same,glycan array binding signal (z-score),[19],-0.08
same,glycan array binding signal (z-score),[20],-0.086
same,glycan array binding signal (z-score),[21],-0.077
same,glycan array binding signal (z-score),[22],-0.076
same,glycan array binding signal (z-score),[23],-0.084
same,glycan array binding signal (z-score),[24],-0.082
same,glycan array binding signal (z-score),[25],-0.08
same,glycan array binding signal (z-score),[26],-0.076
same,glycan array binding signal (z-score),[27],-0.08
